This is an account of results in patent US20260224723A1, “ANTI-B7H3 ANTIBODY-DRUG CONJUGATE AND USE THEREOF” (Duality Biologics (Suzhou) Co., Ltd., priority 2022, published 2026).

As usually defined, the Tm is the temperature at the midpoint of the melting transition.

Series [1] in a line: Thermal stability (Tm) determined by DSF. To be noted: Tm1. It counts as physicochemical. On the procedure:
Tm (melting temperature) of each antibody was investigated using QuantStudio® 7 Flex real-time PCR system (Applied Biosystems). 19 μL of the antibody solution in Example 1.2 was mixed with 1 μL of SYPRO Orange solution (Invitrogen) and transferred to a 96-well plate (Applied Biosystems). The plate was sealed with an optical adhesive film (Applied Biosystems) and centrifuged at 3,000 rpm for 5 min to remove any air bubbles. The plate was heated from 26° C. to 95° C. at a rate of 0.9° C./min, and the resulting fluorescence data were collected. The negative derivatives of the fluorescence changes with respect to different temperatures were calculated, and the maximum value was defined as the melting temperature Tm. If a protein has multiple unfolding transitions, the first Tm were reported and designated Tm1. Data collection and Tm calculation were performed automatically by QuantStudio® real-time PCR software (v1.3).

Series [2] concerns A375 human melanoma cells. The series is described as follows: A375 xenograft tumor-bearing mouse model. The format is in vivo, mice. The protocol: 6- to 8-week-old female NOD/SCID mice (purchased from Jiangsu GemPharmatech Co., Ltd.) were used as test animals. 5×10^6 A375 human melanoma cells were inoculated subcutaneously into the right dorsa of 6- to 8-week-old female NOD/SCID mice. The growth of tumors was observed. When the volume of the tumors reached about 89 mm^3, the tumor-bearing mice were randomized into groups with 6 mice in each of the blank control group and the treatment groups. […] Doses administered were 1 mg/kg, 3 mg/kg and 10 mg/kg. The experiment ended on day 20.
At the end of the experiment, mice were euthanized and TGITV (relative tumor inhibition rate) was calculated. The TGITV (relative tumor inhibition rate) was calculated by the following formula:
[formula] • wherein, mean RTVtreat: mean RTV of dosing group; • mean RTVvehicle: mean RTV of vehicle group (in this example, the vehicle group is the group in which only normal saline was administered);
The RTV was calculated by the following formula:
[formula] • wherein, Vnt: tumor volume in n-numbered mouse on day t; • Vn0: tumor volume in n-numbered mouse on day 0; • RTVn: relative tumor volume in n-numbered mouse on day t.

Series [3] deals with LD1-2027-410644 patient-derived prostate cancer tumor cells. The series is described as follows: Prostate cancer micro patient-derived xenograft model LD1-2027-410644. The format is in vivo, mice. The text has this:
Tumor tissues of patient-derived prostate cancer transplantation models LD1-2027-410644 and LD1-2034-362055 (obtained from Shanghai LIDE Biotech., Co. Ltd.) were inoculated subcutaneously into mice. When the tumors grew to 500-800 mm^3, the tumor tissues were surgically and aseptically removed from the mice, and non-tumor tissues and necrotic tissues were removed in a biosafety cabinet to ensure the purity of the inoculated tumor tissues. The mice were euthanized. The treated tumor tissues were cut into small tumor masses of 1-3 mm^3, and the tumor masses were digested with the collagenase digest at 37° C. for 1-2 h. The supernatant was removed by centrifugation at 1200 rpm for 3 min, and the cells were resuspended in 10 mL of PBS containing 1% FBS and counted on a hemocytometer. […] The cells were resuspended in an RPMI1640 cell culture medium and counted on a hemocytometer. […]
The cell suspension was placed into capsules. […] The day of inoculation was recorded as day 0, and the animals were subjected to a single administration by tail vein injection. […]
At the end of the experiment, the mice were euthanized. The capsules were removed and cell viability assay was performed with CellTiter-Glo, i.e., the capsules were cut into pieces, PBS and CellTiter-Glo™ reagent with the same volume were added, and the luminescence value was measured. […]
On the technique in general: In xenograft studies the graft and the host belong to different species.

B1: W301088-1.145.16-z3-p1-uIgG1KV320: humanized anti-B7H3 IgG1 antibody, heavy chain SEQ ID NO: 12, light chain SEQ ID NO: 13 (antibody)
heavy: QVQLQESGPGLVKPSQTLSLTCTVTDYSITGDYAWNWIRQHPGKGLEWIGYISYSGSTSYNPSLQSRVTISRDTSKNQFSLKLSSVTAADTAVYFCARSLGRRWYFVVWGQGTTVTVSSASTKGPSVFPLAPSSKSTSGGTAALGCLVKDYFPEPVTVSWNSGALTSGVHTFPAVLQSSGLYSLSSVVTVPSSSLGTQTYICNVNHKPSNTKVDKRV[not shown - human IgG1 Fc with changes]
light: DIVMTQSPDSLAVSLGERATINCKSSQSLLQSSNQKNYLAWYQQKPGQPPKLLIYFASTRESGVPDRFSGSGSGTDFTLTISSLQAEDVAVYYCQQHYSAPWTFGGGTKVEIKRTVAAPSVFIFPPSDEQLKSGTASVVCLLNNFYPREAKVQWKVDNALQSGNSQESVTEQDSKDSTYSLSSTLTLSKADYEKHKVYACEVTHQGLSSPVTKSFNRGEC
In the case of B1, the Tm in series [1] was 70.1 °C.

B2: WBP301088-X2: antibody WBP301088 conjugated to linker-payload X2; the DAR6 batch was used in Examples 3-11 (conjugate)
heavy: QVQLQESGPGLVKPSQTLSLTCTVTDYSITGDYAWNWIRQHPGKGLEWIGYISYSGSTSYNPSLQSRVTISRDTSKNQFSLKLSSVTAADTAVYFCARSLGRRWYFVVWGQGTTVTVSSASTKGPSVFPLAPSSKSTSGGTAALGCLVKDYFPEPVTVSWNSGALTSGVHTFPAVLQSSGLYSLSSVVTVPSSSLGTQTYICNVNHKPSNTKVDKRV[not shown - human IgG1 Fc with changes]
light: DIVMTQSPDSLAVSLGERATINCKSSQSLLQSSNQKNYLAWYQQKPGQPPKLLIYFASTRESGVPDRFSGSGSGTDFTLTISSLQAEDVAVYYCQQHYSAPWTFGGGTKVEIKRTVAAPSVFIFPPSDEQLKSGTASVVCLLNNFYPREAKVQWKVDNALQSGNSQESVTEQDSKDSTYSLSSTLTLSKADYEKHKVYACEVTHQGLSSPVTKSFNRGEC
Turning to B2, the “Relative tumor inhibition rate (TGITV)” value is listed as 0.00% in series [2] (1 mpk i.v. single dose, D0); 45.31% in series [2] (1 mpk i.v. single dose, D3); 75.46% in series [2] (1 mpk i.v. single dose, D6); 80.52% in series [2] (1 mpk i.v. single dose, D9); 79.33% in series [2] (1 mpk i.v. single dose, D13); 74.28% in series [2] (1 mpk i.v. single dose, D16). Further, the “Relative tumor inhibition rate (TGITV)” value in series [2] (1 mpk i.v. single dose, D20) was determined as 62.21%; in series [2] (3 mpk i.v. single dose, D0), 0.00%; in series [2] (3 mpk i.v. single dose, D3), 55.27%; in series [2] (3 mpk i.v. single dose, D6) it was 88.25%; in series [2] (3 mpk i.v. single dose, D9), 96.69%; in series [2] (3 mpk i.v. single dose, D13) it was 98.95%. The “Relative tumor inhibition rate (TGITV)” value in series [2] (3 mpk i.v. single dose, D16) is listed as 96.22%; in series [2] (3 mpk i.v. single dose, D20) it was 98.17%; in series [2] (10 mpk i.v. single dose, D0), 0.00%; in series [2] (10 mpk i.v. single dose, D3), 59.93%; in series [2] (10 mpk i.v. single dose, D6) it was 90.91%; in series [2] (10 mpk i.v. single dose, D9) it was 96.91%. Besides, the “Relative tumor inhibition rate (TGITV)” value in series [2] (10 mpk i.v. single dose, D13) was determined as 99.89%; in series [2] (10 mpk i.v. single dose, D16), 100.00%; in series [2] (10 mpk i.v. single dose, D20), 100.00%. Further, the Tumor volume in series [2] (1 mpk i.v. single dose, D0) is given as 88.92 ± 8.64 mm^3; in series [2] (1 mpk i.v. single dose, D3), 91.83 ± 5.88 mm^3; in series [2] (1 mpk i.v. single dose, D6), 71.71 ± 11.17 mm^3; in series [2] (1 mpk i.v. single dose, D9), 89.8 ± 17 mm^3; in series [2] (1 mpk i.v. single dose, D13) it was 152.36 ± 36.98 mm^3; in series [2] (1 mpk i.v. single dose, D16), 244.50 ± 55.84 mm^3. Besides, the Tumor volume was 533.31 ± 87.51 mm^3 in series [2] (1 mpk i.v. single dose, D20); 88.77 ± 9.27 mm^3 in series [2] (3 mpk i.v. single dose, D0); 78.50 ± 20.22 mm^3 in series [2] (3 mpk i.v. single dose, D3); 36.83 ± 9.16 mm^3 in series [2] (3 mpk i.v. single dose, D6); 17.21 ± 6.87 mm^3 in series [2] (3 mpk i.v. single dose, D9); 9.25 ± 6.46 mm^3 in series [2] (3 mpk i.v. single dose, D13). For the same molecule, the Tumor volume in series [2] (3 mpk i.v. single dose, D16) stood at 35.24 ± 26.23 mm^3; in series [2] (3 mpk i.v. single dose, D20) it was 32.16 ± 22.79 mm^3; in series [2] (10 mpk i.v. single dose, D0) it was 88.87 ± 9.18 mm^3; in series [2] (10 mpk i.v. single dose, D3) it was 69.55 ± 11.66 mm^3; in series [2] (10 mpk i.v. single dose, D6) it was 27.76 ± 4.21 mm^3; in series [2] (10 mpk i.v. single dose, D9), 14.4 ± 1.39 mm^3. Besides, the Tumor volume was 0.00 ± 0.00 mm^3 in series [2] (10 mpk i.v. single dose, D16) and 0.00 ± 0.00 mm^3 in series [2] (10 mpk i.v. single dose, D20). Further, in series [2] (single dose, 1, 3 and 10 mg/kg), the “anti-tumor activity (in words)” value was “significant dose-dependent anti-tumor activity”. Further, the “Mean signal value (CellTiter-Glo cell viability at endpoint)” value in series [3] (10 mg/kg single tail vein injection, 10 days, LD1-2027-410644 model) was 85868.38. Further, the “anti-tumor effect (in words)” value in series [3] (micro PDX models LD1-2027-410644 and LD1-2034-362055, 10 mg/kg) was “significant anti-tumor effect”.
